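Dose response: 5 concentrations. Exposure: 48 h. Format: 96-well plates. Endpoint: linear interpolation; highest concentration if not reached. GI50 = concentration required for 50% inhibition of growth. TGI denotes the concentration required for complete inhibition of growth.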
Test system: NCI-H322M lung
Assay: inhibition of tumour cell growth, NCI panel, 48 h

COc1ccc2c(c1)Oc1nc(N)c(C#N)c(N)c1C2Sc1ccc(C)cc1 (configuration not stated)
GI50: 1650 nM | TGI: 3020 nM

Source: PubChem BioAssay (NCI)
